This passage reports binding signal (log fluorescence intensity) results from paper PMC6602471.

The other results are listed elsewhere or left out. At the low end of the ranking the order means little.

In this assay the target is T1, ETS1 (UniProt P14921).
T1 sequence: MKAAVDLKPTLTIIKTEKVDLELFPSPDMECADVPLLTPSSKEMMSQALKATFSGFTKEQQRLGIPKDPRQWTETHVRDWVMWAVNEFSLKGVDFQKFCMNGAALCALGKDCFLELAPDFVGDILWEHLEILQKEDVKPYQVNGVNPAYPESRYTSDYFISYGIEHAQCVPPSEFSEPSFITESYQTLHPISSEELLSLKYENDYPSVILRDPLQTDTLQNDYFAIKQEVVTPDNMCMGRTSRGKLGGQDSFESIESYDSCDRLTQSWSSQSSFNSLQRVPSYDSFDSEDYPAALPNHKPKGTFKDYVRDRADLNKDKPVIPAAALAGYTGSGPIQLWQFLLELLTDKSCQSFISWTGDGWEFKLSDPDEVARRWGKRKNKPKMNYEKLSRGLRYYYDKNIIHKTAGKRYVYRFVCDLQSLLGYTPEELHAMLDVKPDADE
Nature of the assay: custom PBM. As to conditions: custom protein-binding microarray; buffer, salt, pH and temperature not stated; high values mean tight binding; double strand, one strand shown.
With “CACAATATTTACAGTAATGTAGCACGCGTAACTCCTGTCTTGATTCGCTTGACGCTGCTG”, the binding signal (log fluorescence intensity) was 8.19.
For the sequence “TAAAGGGAAGACGGTTGTGGTAGTGCCGGGTATTAAGTCTTGATTCGCTTGACGCTGCTG”, the binding signal (log fluorescence intensity) amounted to 8.44.
Then “CAGCATAGGACTTCTTCCCTGAAGCAAGTGATAACCGTCTTGATTCGCTTGACGCTGCTG”, with 8.47; and “CTGGGACTTGACCCAACTCTCCCACGTGGGTCGTTTGTCTTGATTCGCTTGACGCTGCTG”, with 8.38; and “CACAATTTTTACAGTAATGTAGCACGCGTAATTCCTGTCTTGATTCGCTTGACGCTGCTG”, with 8.4.
Then “TCCTGACTTATATATGCGAATGCACATGAATAGACCGTCTTGATTCGCTTGACGCTGCTG”, with 8.13; and “TACTGCCTTATATATGCGAATGCACATGAATAGACCGTCTTGATTCGCTTGACGCTGCTG”, with 8.22; and “CACAATTTTTACAGTAATGTAGCACGCGTAACTCTTGTCTTGATTCGCTTGACGCTGCTG”, with 8.3.
Take “TGTCGGGTAAGGGAATGTAGATCACCTGAATGAAAAGTCTTGATTCGCTTGACGCTGCTG”: the binding signal (log fluorescence intensity) was found to be 8.08.
With “GATTAATTTCTGCCCTTATTCGCACGTGCCATAGCAGTCTTGATTCGCTTGACGCTGCTG”, the binding signal (log fluorescence intensity) worked out at 8.17.
Regarding “CAGCATAGGACTTCTACCCTGAAGCAATTGATAACCGTCTTGATTCGCTTGACGCTGCTG”, the binding signal (log fluorescence intensity) stood at 8.18.
As to “TAAAGGGAATACGGTTGTGGTAGTTCCGGGTATTAAGTCTTGATTCGCTTGACGCTGCTG”, the binding signal (log fluorescence intensity) worked out at 8.37.
For “TCCGGCTACCAGCTCCACCCACTTCAGGCCTTGAAGGTCTTGATTCGCTTGACGCTGCTG”, the binding signal (log fluorescence intensity) is 8.28.
As for “TAAAGGGAAGACGGTTGTGGTAGTTCCGGGTATTGAGTCTTGATTCGCTTGACGCTGCTG”, the figure is 8.54.
Then “CAGCATAGGACTTCTTCCCTGAAGCAATTTATAACCGTCTTGATTCGCTTGACGCTGCTG”, with 8.4; and “CTGGGACTTTACCCAACTCTGCCACGTGGGTCGTTTGTCTTGATTCGCTTGACGCTGCTG”, with 8.13.
Then “TGAAGGGAAGACGGTTGTGGTAGTTCCGGGTATTAAGTCTTGATTCGCTTGACGCTGCTG”, with 8.51.
For “TGTCGCGTAAGGGAATGTAGATCACGTGAATGAAAAGTCTTGATTCGCTTGACGCTGCTG”, the binding signal (log fluorescence intensity) amounted to 8.06.
Then “GATTAATTTCGGCCCTTATTCGCACGTGCCATAACAGTCTTGATTCGCTTGACGCTGCTG”, with 8.19; and “TGTCGGGTAAGGGAATGTAGATCACGTGACTGAAAAGTCTTGATTCGCTTGACGCTGCTG”, with 8.33; and “TAAAGGGTAGACGGTTGTGGTAGTTCCGGGTATTAAGTCTTGATTCGCTTGACGCTGCTG”, with 8.38.
As for “GATTAATTTCTGCCCTTATTCGCACGTGCCATAACTGTCTTGATTCGCTTGACGCTGCTG”, the figure is 8.23; as for “GATTAATTTCTGCCCTTATTCGCACGTACCATAACAGTCTTGATTCGCTTGACGCTGCTG”, 8.13.
Then “GTGTATAGGACCCCATCCAACACACGTGTTAAAATGGTCTTGATTCGCTTGACGCTGCTG”, with 8.26.
For “CACAATTTTTACCGTAATGTAGCACGCGTAACTCCTGTCTTGATTCGCTTGACGCTGCTG”, the binding signal (log fluorescence intensity) was 8.41.
Then “GTGTATAGGATCCAATCCAACACACGTGTTAAAATGGTCTTGATTCGCTTGACGCTGCTG”, with 8.16.
Turning to “CACAATTTTTACAGTAGTGTAGCACGCGTAACTCCTGTCTTGATTCGCTTGACGCTGCTG”, the binding signal (log fluorescence intensity) worked out at 8.33.
Take “GCTGCTGCGGTGCATACCCCACCGGATGTGCCCCCGGTCTTGATTCGCTTGACGCTGCTG”: the binding signal (log fluorescence intensity) was 9.95.
Take “GATTAATTTCCGCCCTTATTCGCACGTGCCATAACAGTCTTGATTCGCTTGACGCTGCTG”: the binding signal (log fluorescence intensity) turned out to be 13.9.
As for “TAAAGGGAAGACGGTTGTGGTAGTTCCGGGTAATAAGTCTTGATTCGCTTGACGCTGCTG”, the figure is 8.57; as for “CAGCATAGGAATTCTTCCCTGAAGCAATTGATAACCGTCTTGATTCGCTTGACGCTGCTG”, 8.42; as for “CTGGGACTTGACCCAACTCTGCCACGTGGGTCGTGTGTCTTGATTCGCTTGACGCTGCTG”, 8.17.
Then “GGTGCTGCGGTGCATACCCCACCGGATGTGACCCCGGTCTTGATTCGCTTGACGCTGCTG”, with 10.2; and “GTGTTTAGGATCCCATCCAACACACGTGTTAAAATGGTCTTGATTCGCTTGACGCTGCTG”, with 8.22.
Take “TGTCGGGTAAGGCAATGTAGATCACGTGAATGAAAAGTCTTGATTCGCTTGACGCTGCTG”: the binding signal (log fluorescence intensity) was 8.1.
In the case of “TCCGGCTACCAGGTCCACCCACTTCAGGCCTTGTAGGTCTTGATTCGCTTGACGCTGCTG”, the binding signal (log fluorescence intensity) came to 8.34.
Then “TACTGACCTATATATGCGAATGCACATGAATAGACCGTCTTGATTCGCTTGACGCTGCTG”, with 8.12.
As to “GGAAAAAGGCCCAGGGTAACAACGGAAGTGGGCTTAGTCTTGATTCGCTTGACGCTGCTG”, the binding signal (log fluorescence intensity) was 9.4.
Then “TGTCGGGTAAGGGAATGTAGATCCCGTGAATGAAAAGTCTTGATTCGCTTGACGCTGCTG”, with 8.3; and “TACTGACTTATATATGCGATTGCACATGAATAGACCGTCTTGATTCGCTTGACGCTGCTG”, with 8.26.
As to “GATTAATTTCTGCCATTATTCGCACGTGCCATAACAGTCTTGATTCGCTTGACGCTGCTG”, the binding signal (log fluorescence intensity) was 8.29.
Regarding “CAGCATAGCACTTCTTCCCTGAAGCAATTGATAACCGTCTTGATTCGCTTGACGCTGCTG”, the binding signal (log fluorescence intensity) amounted to 8.23.
Regarding “GGAAAAAGGCCCAGGGTAACACAGGAAGTGGGCTTAGTCTTGATTCGCTTGACGCTGCTG”, the binding signal (log fluorescence intensity) is 9.75.
Consider “TACTGACTTATATATCCGAATGCACATGAATAGACCGTCTTGATTCGCTTGACGCTGCTG”, for which the binding signal (log fluorescence intensity) came out at 8.35.
Consider “GCTGCTGCGGTGCATTCCCCACCGGATGTGACCCCGGTCTTGATTCGCTTGACGCTGCTG”, for which the binding signal (log fluorescence intensity) was found to be 10.2.
As for “TGTCGGGTAAGGGAATGTAGACCACGTGAATGAAAAGTCTTGATTCGCTTGACGCTGCTG”, the figure is 8.19; as for “CAGCATAGGACTTCCTCCCTGAAGCAATTGATAACCGTCTTGATTCGCTTGACGCTGCTG”, 12.7; as for “CAGCATAGGACTTCTTCCCCGAAGCAATTGATAACCGTCTTGATTCGCTTGACGCTGCTG”, 8.16.
On to “CACAATTTTTACAGTAATGTAGCACGCGTCACTCCTGTCTTGATTCGCTTGACGCTGCTG”, for which the binding signal (log fluorescence intensity) is 8.11.
Then “TGTCGGGTAAGGGTATGTAGATCACGTGAATGAAAAGTCTTGATTCGCTTGACGCTGCTG”, with 8.34; and “GATGCTGCGGTGCATACCCCACCGGATGTGACCCCGGTCTTGATTCGCTTGACGCTGCTG”, with 10.4; and “CTGGGACTTGACCCAACTCTGCCACGTGGGTCGTCTGTCTTGATTCGCTTGACGCTGCTG”, with 8.26.
Regarding “TGTCGGGTACGGGAATGTAGATCACGTGAATGAAAAGTCTTGATTCGCTTGACGCTGCTG”, the binding signal (log fluorescence intensity) came out at 8.03.
As for “CTGGGACTTGACCCAATTCTGCCACGTGGGTCGTTTGTCTTGATTCGCTTGACGCTGCTG”, the figure is 8.19; as for “CAGCATAGGATTTCTTCCCTGAAGCAATTGATAACCGTCTTGATTCGCTTGACGCTGCTG”, 8.31.
As for “CACAATTTTTACAGGAATGTAGCACGCGTAACTCCTGTCTTGATTCGCTTGACGCTGCTG”, the figure is 8.26.
Then “TGTCGGGTAAGGGAATGTAGATCGCGTGAATGAAAAGTCTTGATTCGCTTGACGCTGCTG”, with 8.24; and “AACTGACTTATATATGCGAATGCACATGAATAGACCGTCTTGATTCGCTTGACGCTGCTG”, with 8.32.
With “GCTGCTGCGGTGCATAACCCACCGGATGTGACCCCGGTCTTGATTCGCTTGACGCTGCTG”, the binding signal (log fluorescence intensity) was 10.4.
Then “TCCGGCTACCAGCTCAACCCACTTCAGGCCTTGTAGGTCTTGATTCGCTTGACGCTGCTG”, with 8.14; and “TCCGGCTACCAGCTCCACCCGCTTCAGGCCTTGTAGGTCTTGATTCGCTTGACGCTGCTG”, with 8.15.
On to “GGAAAAAGGCCCAGGGTTACACCGGAAGTGGGCTTAGTCTTGATTCGCTTGACGCTGCTG”, for which the binding signal (log fluorescence intensity) came to 11.8.
As for “GGAAAAAGGCCCAGGGTAACACCGGAAGTGTGCTTAGTCTTGATTCGCTTGACGCTGCTG”, the binding signal (log fluorescence intensity) worked out at 11.7.
As to “CGGAACTGTCGTAAACGTCGGATATCCGGTTCTTCTGTCTTGATTCGCTTGACGCTGCTG”, the binding signal (log fluorescence intensity) came out at 11.8.
Take “GGACAAAGGCCCAGGGTAACACCGGAAGTGGGCTTAGTCTTGATTCGCTTGACGCTGCTG”: the binding signal (log fluorescence intensity) was determined as 12.
As for “GGAAAAAGGCCCAGGGTAACACCGGAAGGGGGCTTAGTCTTGATTCGCTTGACGCTGCTG”, the figure is 9.53.
Then “GATTAACTTCTGCCCTTATTCGCACGTGCCATAACAGTCTTGATTCGCTTGACGCTGCTG”, with 8.07; and “TGCGGCTACCAGCTCCACCCACTTCAGGCCTTGTAGGTCTTGATTCGCTTGACGCTGCTG”, with 8.24.
Then “GCTGCTGCGGTGCATACCCCACCGGATGTGAGCCCGGTCTTGATTCGCTTGACGCTGCTG”, with 9.89; and “CACAATTTTTACAGTAATGTAGCAGGCGTAACTCCTGTCTTGATTCGCTTGACGCTGCTG”, with 8.17; and “CAGCATAGGACTTCTTCCCTCAAGCAATTGATAACCGTCTTGATTCGCTTGACGCTGCTG”, with 8.19.
Consider “GGAAAAAGGCCCAGGGTAACGCCGGAAGTGGGCTTAGTCTTGATTCGCTTGACGCTGCTG”, for which the binding signal (log fluorescence intensity) is 10.7.
Turning to “CGGAAGTGTCGTAAACGTCAGATATCCGGTTCTTCTGTCTTGATTCGCTTGACGCTGCTG”, the binding signal (log fluorescence intensity) was 11.6.
Then “CGGAAGTGTCGTAAACGTCGGATATTCGGTTCTTCTGTCTTGATTCGCTTGACGCTGCTG”, with 8.55; and “CGGAAGTGTCGTACACGTCGGATATCCGGTTCTTCTGTCTTGATTCGCTTGACGCTGCTG”, with 11.6; and “TCCGACTACCAGCTCCACCCACTTCAGGCCTTGTAGGTCTTGATTCGCTTGACGCTGCTG”, with 8.37.
As for “TGTCGGGTAAGGGAATGTAGATCACGTAAATGAAAAGTCTTGATTCGCTTGACGCTGCTG”, the figure is 8.16.
On to “TACTGACTTATATATGCCAATGCACATGAATAGACCGTCTTGATTCGCTTGACGCTGCTG”, for which the binding signal (log fluorescence intensity) amounted to 8.14.
Then “TACTGACATATATATGCGAATGCACATGAATAGACCGTCTTGATTCGCTTGACGCTGCTG”, with 8.43.
As for “GTTGCTGCGGTGCATACCCCACCGGATGTGACCCCGGTCTTGATTCGCTTGACGCTGCTG”, the figure is 10.4; as for “TACTGACTTATATATGCGAATGCACATGAATAAACCGTCTTGATTCGCTTGACGCTGCTG”, 8.06.
